# From PubChem BioAssay AID1240 (Sanford-Burnham Center for Chemical Genomics, 2008)
# The campaign covered roughly 50,000 compounds. About 800 (1.6%) showed an effect of 50% or more. The list shows a part of the results.
# Molecular target: Bcl-2-like protein 10 (Homo sapiens) (UniProt Q9HD36)
# Assay: Phenotype converters, Bcl-B/TR3 peptide binding displacement, primary biochemical FP (AID 1240);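 note: 0% = Bcl-B with tracer peptide and DMSO and 100% = tracer peptide lacking Bcl-B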
# Details: GST-Bcl-B / FITC-TR3 peptide fluorescence polarization; stronger effect = higher value; compound at 3.75 mg/L
# Chain of UniProt Q9HD36 (Q9HD36 whole entry, looked up): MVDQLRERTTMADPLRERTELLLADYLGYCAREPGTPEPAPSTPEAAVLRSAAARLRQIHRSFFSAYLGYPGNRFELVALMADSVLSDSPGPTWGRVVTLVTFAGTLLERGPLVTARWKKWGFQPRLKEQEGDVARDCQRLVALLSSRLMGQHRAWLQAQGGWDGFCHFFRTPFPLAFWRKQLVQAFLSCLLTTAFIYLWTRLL
row,SMILES,displacement
1,COc1ccc2oc(=O)c(C(=O)Nc3ccc(C(C)=O)cc3)cc2c1,17.6%
2,CC(C)(C)c1ccc(OCCOc2ccc(/C=N/N3C(=O)CSC3=S)cc2)cc1,-18.3%
3,COc1ccc(/C=N\NC(=O)CNc2ccccc2C)cc1,0.5%
4,COCCNC(=O)CN(c1c(C)cccc1C)S(C)(=O)=O,6.4%
5,COc1ccc(/C(C)=N/N=C2/NC(=O)C(CC(=O)Nc3ccc(C)cc3)S2)cc1 (stereo unspecified),-27.9%
6,S=C(Nc1ccc2nc(-c3ccccc3)c(-c3ccccc3)nc2c1)N1CCN(c2ccccn2)CC1,10%
7,CCOc1cc(C(=O)NC2CC2)cc(OCC)c1OCC,-2.5%
8,COC(=O)c1cccc(NC(=O)c2ccc3c(c2)C(=O)N(C(C)(C)C)C3=O)c1,-14.8%
9,O=C(Nc1nc2ccccc2n1CCOc1ccccc1)c1ccccc1F,25%
10,Cn1c(=O)n(C)c2cc(C3Nc4ccc5ccccc5c4C4=C3C(=O)CC(C)(C)C4)ccc21 (stereo unspecified),40.4%
11,CC1(C)NC(=O)N(CC(O)COc2ccc(Cl)cc2)C1=O (stereo unspecified),-3.3%
12,NC(=O)c1c(NC(=O)c2ccccc2[N+](=O)[O-])sc2c1CCCCCC2,1%
13,Cc1cc(NS(=O)(=O)c2ccc(NC(=O)c3cccc(Br)c3)cc2)no1,9.5%
14,CCOc1ccc(N2C(=O)/C(=C/c3ccc(-c4cc([N+](=O)[O-])ccc4Cl)o3)C(=O)NC2=S)cc1,-4.6%
15,CC(C)NC(=O)C12CC3CC(C1)CC(C(=O)NC(C)C)(C3)C2,1.3%
16,O=C(/C=C/c1ccc(-c2cccc([N+](=O)[O-])c2)o1)Nc1ccc(Cl)cc1,4.5%
17,COc1cc([N+](=O)[O-])ccc1NC(=O)c1ccc(S(=O)(=O)N2CC(C)OC(C)C2)cc1 (stereo unspecified),9.6%
18,Cc1ccc(-c2cc(-c3ccncc3)c(C#N)c(N)c2C#N)cc1,21.2%
19,CCOc1ccccc1C(=O)Nc1nc(-c2ccc(Br)cc2)cs1,0.6%
20,CCCCOc1ccc(C(=O)Nc2cccc(-c3nc4cc(C)ccc4o3)c2C)cc1,-0.3%
21,O=[N+]([O-])c1cc2c(cc1CC1CC1(Cl)Cl)OCCO2 (stereo unspecified),23.5%
22,COc1ccc(OCC(O)COc2ccc(C(=O)O)cc2)cc1 (stereo unspecified),-3.8%

row,SMILES,displacement
1,COc1nccnc1NS(=O)(=O)c1ccc(N=Cc2c(C)[nH]n(-c3ccc(C)c(C)c3)c2=O)cc1,8.6%
2,CCSc1nnc(NC(=O)C2C3CCC(C3)C2C(=O)O)s1 (stereo unspecified),-2.4%
3,COc1ccc(S(=O)(=O)Nc2ccc3ccccc3c2)cc1OC,-9.2%
4,CC(=O)c1cccc(N=Cc2nc(-c3ccccc3)oc2O)c1,3.2%
5,O=C(NCc1cccnc1)c1ccc(Br)o1,-0.6%
6,Cc1cccc(NC(=O)Cc2ccccc2)c1C,17.7%
7,O=C(/C=C(\O)c1ccc(F)cc1)C(F)(F)F,3.5%
8,COc1cc(/C=N/NC(=O)C(O)(c2ccccc2)c2ccccc2)c(Br)cc1OCC(=O)O,-11.6%
9,Cc1ccc(/C=N/NC(=O)c2cccc(F)c2)c(O)c1,-3.8%
10,CCOc1cccc(-c2cc(C(=O)NCCCN3CCOCC3)c3ccccc3n2)c1,-4.5%
11,Cc1cc(OCCN2CCCCC2)cc(C)c1Cl,9%
12,COc1ccc(C2Nc3ccccc3C(=O)N2Cc2ccccc2)cc1COc1ccc([N+](=O)[O-])cc1 (stereo unspecified),15.4%
13,O=C(O)CCCc1nc2ccccc2[nH]1,9.2%
14,O=C(COc1ccccc1[N+](=O)[O-])Nc1cccc(NC(=O)c2ccc(Cl)cc2Cl)c1,-11.3%
15,CC(=O)Nc1ccc(S(=O)(=O)Nc2cc(C)ccc2C)cc1,6.3%
16,Cc1c(NC(=O)c2cccc(I)c2)cccc1[N+](=O)[O-],-7.8%
17,COc1ccc(CCNC(=O)CSCC(=O)Nc2ccccc2)cc1OC,-13.8%
18,Nc1ccc2nc(SCc3nc4ccccc4[nH]3)sc2c1,-11.3%
19,Cc1ccc(OCC(=O)Nc2ccc(I)cc2Cl)cc1C,10.2%
20,COc1ccc(CC(=O)Nc2cc(C)cc(C)c2)cc1OC,7.8%
21,Cc1ccc(N2C(=O)C(=O)/C(=C(/O)c3ccccc3)C2c2ccc(O)cc2)cc1Cl (stereo unspecified),-3.5%
22,O=C(Nc1ccccc1)C1C(c2ccccc2)C1(Cl)Cl (stereo unspecified),2.7%

row,SMILES,displacement
1,O=C1CCC(=O)N1CNc1ccc(F)cc1,12.6%
2,O=C(NC(=S)Nc1ccc2oc(-c3ccc(Cl)c(Cl)c3)nc2c1)c1ccccc1,20%
3,CS(=O)(=O)c1ccc2nc(NC(=O)c3cccc(Br)c3)sc2c1,-13.8%
4,O=C(CN(c1cccc(Br)c1)S(=O)(=O)c1ccccc1)Nc1cccc(Cl)c1,-0.2%
5,O=C(c1ccc(Cl)cc1)N1CCN(c2ccc([N+](=O)[O-])c(Sc3cccc4cccnc34)c2)CC1,14.1%
6,O=C(CN1C(=O)c2ccccc2C1=O)NCc1ccc(C(=O)O)cc1,-7.3%
7,COc1cccc(N2C(=O)/C(=C/c3ccccc3[N+](=O)[O-])SC2=S)c1,-2.3%
8,COc1ccc(CCN2C(=O)/C(=C3/C(=O)N(C)c4ccccc43)SC2=S)cc1OC,-3.1%
9,Cc1ccc(-c2nc3ccc(Cl)cc3o2)cc1NC(=O)c1ccccc1F,-6.4%
10,COc1ccc(Nc2nc(-c3ccc4ccccc4c3)cs2)cc1,-6.2%
11,CCOC(=O)c1c(-c2cccs2)csc1NC(=O)c1ccc(F)cc1,14.9%
12,CCOC(=O)C1=C(O)/C(=C/c2cccnc2)SC1=Nc1ccc(Cl)cc1,41.1%
13,O=C(/C=C\Nc1ccc(Br)cn1)c1ccc(Cl)cc1,61.9%
14,Cc1nc2ccccc2n1S(=O)(=O)c1ccc(Br)cc1,17.1%
15,COc1ccc(C2/C(=C(\O)c3ccccc3)C(=O)C(=O)N2Cc2cccnc2)c(OC)c1 (stereo unspecified),-7.9%
16,C=C(C)CNC(=S)NNC(=O)COc1cccc(C)c1,-7.9%
17,Cc1cc(OCC(=O)Nc2cc(Cl)cc(Cl)c2)ccc1Cl,-0.7%
18,NC1=NC(=O)/C(=C\c2ccc(-c3cccc(Cl)c3)o2)S1,5.1%
19,COC(=O)c1ccccc1-c1ccc(C=O)o1,0.4%
20,CCOc1cc2oc(=O)cc(-c3ccccc3)c2cc1CC,15.5%
21,COc1ccc(OC)c(C2/C(=C(\O)c3ccccc3)C(=O)C(=O)N2CCN(C)C)c1 (stereo unspecified),-6.4%
22,COc1cccc(OC)c1C(=O)Nc1cc(Cl)cc(Cl)c1,-5.4%

row,SMILES,displacement
1,COc1ccc2c(c1)-c1c(ssc1=S)C(C)(C)N2C(=O)CC(C)C,3.2%
2,CCN(CC)c1ccc(C=Nc2ccc(C)c(F)c2)c(O)c1,0.4%
3,COc1ccccc1/C=C1\SC(=S)N(c2cccc(C)c2)C1=O,1.5%
4,O=C1C(=O)N(C2CCCCC2)C(=O)N1C1CCCCC1,16.9%
5,O=C(COc1ccc2ccc(=O)oc2c1)OCc1ccccc1,10.9%
6,COc1ccc(NC(=O)c2ccc(CN3CCN(c4ccccc4)CC3)cc2)cc1,0.9%
7,COc1ccc(S(=O)(=O)N2CCN(S(=O)(=O)c3ccc(C)cc3)CC2)cc1,13.8%
8,COc1ccc(C(=O)O/N=C2/CCCc3c2ccc(OC)c3C)cc1[N+](=O)[O-],-5.9%
9,CC1(C)CC(=O)C2=C(C1)OC1=C(C(=O)CC(C)(C)C1)C2c1cn[nH]c1-c1ccccc1,-9.9%
10,CC(=O)NN1C(=O)c2ccc(-c3ccc4c(c3)C(=O)N(NC(C)=O)C4=O)cc2C1=O,-12%
11,CCOC(=O)c1ccc(NC(=O)CCCCCN2C(=O)/C(=C/c3ccc(Cl)cc3)SC2=S)cc1,2%
12,O=C1C(=O)N(Cc2cccnc2)C(c2ccc([N+](=O)[O-])cc2)/C1=C(\O)c1ccccc1 (stereo unspecified),-5.6%
13,Cc1ccc(C(=O)NCc2ccco2)cc1,8.5%
14,COc1ccc(N2C(=O)c3ccc4c5c(ccc(c35)C2=O)CC4)c(OC)c1,12.5%
15,CCOC(=O)c1c(NC(=O)c2ccc(F)cc2)sc(C(=O)Nc2ccc3c(c2)OCO3)c1C,-11.9%
16,CCn1c(O)c(C=NCCc2ccc(O)c(O)c2)c2ccccc21,12.4%
17,COc1ccc(C(=O)OCCN2CCOCC2)cc1,-0.9%
18,O=C(O)CCCCCN1C(=O)C(=O)/C(=C(/O)c2ccc(Cl)cc2)C1c1ccc(F)cc1 (stereo unspecified),3.4%
19,CC(=O)Nc1ccc(N2C(=O)C3C4c5ccccc5C(c5ccccc54)C3C2=O)cc1 (stereo unspecified),1.3%
20,CCOc1cc(N)ccc1C1CCCCC1,-1.5%
21,O=c1[nH]nc(SCc2ccc([N+](=O)[O-])cc2)c(=O)[nH]1,-4%
22,COc1ccc(NC(=O)COc2ccc(C(C)(C)c3ccccc3)cc2)c(OC)c1,9.5%

row,SMILES,displacement
1,COc1ccc(/C=C2\SC(=O)N(Cc3ccccc3)C2=O)cc1,-13.1%
2,O=C1Nc2ccc(Br)cc2C1=Cc1nc2ccccc2c(=O)n1-c1ccc([N+](=O)[O-])cc1,3%
3,Cc1cc(OCC(=O)Nc2ccc(Nc3ccccc3)cc2)ccc1Br,1.1%
4,Cc1c(Cl)cccc1NC(=O)c1ccc(Br)o1,-5.1%
5,O=C(Nc1ccc(Cl)cn1)c1ccc(-c2cccc(Cl)c2)o1,9.1%
6,CCOc1cc(NC(=O)c2ccccc2)c(OCC)cc1NC(=O)CCC(=O)O,-7.2%
7,O=C(CSCc1cccc(Br)c1)N1CCCCCC1,1%
8,O=C1CC(c2ccc(Cl)cc2)CC2=C1C(c1ccc(C(F)(F)F)cc1)Nc1ccccc1N2 (stereo unspecified),-0.4%
9,CC(C)CC(=O)NS(=O)(=O)c1ccc(NC(=O)c2cccc(Br)c2)cc1,12.4%
10,CCN(CC)c1ccc(/C=N\NC(=O)c2cc(C(C)(C)C)[nH]n2)cc1,2.8%
11,COc1ccccc1C(=O)NN1C(=O)/C(=C/c2ccccc2Cl)SC1=S,12.4%
12,COc1cc(/C=c2\sc3nc4ccccc4n3c2=O)ccc1OCCOc1ccc(C(C)(C)C)cc1,13.9%
13,O=C1C(=O)c2ccccc2C(Cl)=C1Cl,4.5%
14,O=S(=O)(Nc1ccccn1)c1cccc(S(=O)(=O)c2ccc(Br)cc2)c1,-3.6%
15,Nc1ccc(-c2nc3cc(Cl)ccc3o2)c(Cl)c1,-2.8%
16,O=C(c1cc2n(n1)C(C(F)(F)F)CC(c1ccc(F)cc1)N2)N1CCCC1 (stereo unspecified),1.3%
17,CC(=O)NS(=O)(=O)c1ccc(NS(=O)(=O)c2ccc(Br)cc2)cc1,6.5%
18,CN(C)c1ccc(/C=N/Nc2cc(N3CCOCC3)ncn2)cc1,-14.2%
